Data taken from patent US20170029494A1 (GlaxoSmithKline, published 2017).
Values joined by “and” are separate entries in the source; they are usually repeats but may differ in a detail not shown here. Identical values can stand only once. Each block holds one binder with its values, some of them ahead of it.

How the values were obtained:
human VEGF165 [1] = molecular target: T1, human VEGF165 (human, UniProt P15692 27-191); assay: SPR Biacore T100, Protein A capture, VEGF165 analyte, 37 C, 1:1 model
T1 construct: mature; Two sources were used (GSK in-house HEK293); also called hVEGF165; rhVEGF165
T1 sequence (looked up): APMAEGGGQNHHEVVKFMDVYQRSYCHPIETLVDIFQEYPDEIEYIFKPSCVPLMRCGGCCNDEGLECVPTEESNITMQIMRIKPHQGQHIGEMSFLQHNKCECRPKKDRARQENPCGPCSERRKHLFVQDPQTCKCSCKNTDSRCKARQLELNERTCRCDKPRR

human VEGF165 [2] = molecular target: T1, human VEGF165; assay: MSD RBA, VEGF binding to coated VEGFR2 (second set)
human VEGF165 [3] = molecular target: T1, human VEGF165; assay: SPR Biacore T100, Protein A capture, VEGF165 analyte, 37 C, 1:1 model (biphasic curves)
human VEGF165 [4] = molecular target: T1, human VEGF165; assay: ITC, VEGF165 titrated into construct, 25 C, 1:1 model
human VEGF165 [5] = molecular target: T1, human VEGF165; assay: SPR Biacore T100, Protein A capture, VEGF165 analyte, 37 C, 1:1 model; remark: listed apart in the source
human VEGF165 [6] = molecular target: T1, human VEGF165; assay: MSD RBA, VEGF binding to coated VEGFR1, no pre-incubation
human VEGF165 [7] = molecular target: T1, human VEGF165; assay: MSD RBA, VEGF binding to coated VEGFR2, no pre-incubation
human VEGF165 [8] = molecular target: T1, human VEGF165; assay: SPR Biacore T100, Protein A capture, VEGF165 analyte, 37 C, 1:1 model (fit not ideal)
human VEGF165 [9] = molecular target: T1, human VEGF165; assay: SPR Biacore T100, Protein A capture, VEGF165 analyte, 37 C, 1:1 model; remark: listed apart in the source
human VEGF165 [10] = molecular target: T1, human VEGF165; assay: as above; remark: listed apart in the source

- Kd (human VEGF165 [1]): 6.21 pM
- koff (human VEGF165 [1]): 6.23e-05 s⁻¹
- kon (human VEGF165 [1]): 1e+07 M⁻¹ s⁻¹
B1: DMS30027 (C-terminal Fc fusion of K-044-085 dAb (Helical Linker)) (Fc fusion)
chain: [human IgG1 Fc not shown]KEAAAKEAAAKEAAAKELAAKEAAAKEAAAKEAAAKELAADIQMTQSPSSLSASVGDRVTITCRASQWIGPELKWYQQKPGKAPKLLIYHGSILQSGVPSRFSGSGSGTDFTLTISSLQPEDFATYYCQQYMYYPHTFGQGTKVEIKR
notes: dimer; also called C085 Helical

- EC50 (human VEGF165 [2]): 0.00486 µg/mL and 0.049 nM
- Max. % Inhibition (human VEGF165 [2]): 82.4%
B2: DMS30025 (DT02-K-044-085-AS-Fc (T113P)-GS(TVAAPSGS)x3 Linker-DT02-K-044-085 dAb-Fc-dAb) (Fc fusion)
chain: DIQMTQSPSSLSASVGDRVTITCRASQWIGPELKWYQQKPGKAPKLLIYHGSILQSGVPSRFSGSGSGTDFTLTISSLQPEDFATYYCQQYMYYPHTFGQGTKVEIKRAS[human IgG1 Fc with T225P (EU numbers) not shown]GSTVAAPSGSTVAAPSGSTVAAPSGSDIQMTQSPSSLSASVGDRVTITCRASQWIGPELKWYQQKPGKAPKLLIYHGSILQSGVPSRFSGSGSGTDFTLTISSLQPEDFATYYCQQYMYYPHTFGQGTKVEIKR
notes: Vk-Vk dAb-Fc-dAb; dimer; also called DMS300025

- Kd (human VEGF165 [3]): 8.06 pM
- koff (human VEGF165 [3]): 7.57e-05 s⁻¹
- kon (human VEGF165 [3]): 9.4e+06 M⁻¹ s⁻¹
B3: DMS30029 (N-terminal Fc fusion of K-044-085 dAb (ASTHP linker)) (Fc fusion)
chain: DIQMTQSPSSLSASVGDRVTITCRASQWIGPELKWYQQKPGKAPKLLIYHGSILQSGVPSRFSGSGSGTDFTLTISSLQPEDFATYYCQQYMYYPHTFGQGTKVEIKRAS[human IgG1 Fc with T225P (EU numbers) not shown]
notes: dimer; also called N085 T2P; N085 T113P

- Ka (human VEGF165 [4]): 1.45e+07 M⁻¹
- N (VEGF165 (monomer)/antibody) (human VEGF165 [4]): 1.3
- ΔH (human VEGF165 [4]): -17300 cal/mol
- ΔS (human VEGF165 [4]): -25.4 cal/mol/deg
- Kd (human VEGF165 [5]): 0.0103 nM
- koff (human VEGF165 [5]): 0.000107 s⁻¹
- kon (human VEGF165 [5]): 1.04e+07 M⁻¹ s⁻¹
- Kd (human VEGF165 [3]): 6.43 pM
- koff (human VEGF165 [3]): 6.6e-05 s⁻¹
- kon (human VEGF165 [3]): 1.03e+07 M⁻¹ s⁻¹
B4: DMS30028 (N-terminal Fc fusion of K-044-085 dAb (IgG1 Hinge)) (Fc fusion)
chain: DIQMTQSPSSLSASVGDRVTITCRASQWIGPELKWYQQKPGKAPKLLIYHGSILQSGVPSRFSGSGSGTDFTLTISSLQPEDFATYYCQQYMYYPHTFGQGTKVEIKRV[human IgG1 Fc with changes not shown]
notes: dimer; also called N085 extg1; DMS30028ITC

- EC50 (human VEGF165 [6]): 0.207 µg/mL and 2.76 nM
- Max. % Inhibition (human VEGF165 [6]): 82.2%
- EC50 (human VEGF165 [7]): 0.0955 µg/mL and 1.27 nM
- Max. % Inhibition (human VEGF165 [7]): 85.8%
B5: DMS30005 (N-terminal Fc fusion of K-044-251 dAb, AAAS Linker, dAb-Fc) (Fc fusion)
chain: ESTDIQMTQSPSSLSASVGDRVTITCRASQWIGPELKWYQQKPGKAPKLLIYHGSILQSGVPSRFSGSGSGTDFTLTISSLQPEDFATYYCQQYMYYPETFGQGTKVEIKRAA[human IgG1 Fc and a few adjoining residues not shown]
notes: Vk dAb-Fc; dimer

- Kd (human VEGF165 [8]): 7.15 pM
- koff (human VEGF165 [8]): 4.83e-05 s⁻¹
- kon (human VEGF165 [8]): 6.76e+06 M⁻¹ s⁻¹
B6: N085 fib x4 (N-terminal Fc fusion of K-044-085 dAb ((TGLDSP)x4)) (Fc fusion)
chain: DIQMTQSPSSLSASVGDRVTITCRASQWIGPELKWYQQKPGKAPKLLIYHGSILQSGVPSRFSGSGSGTDFTLTISSLQPEDFATYYCQQYMYYPHTFGQGTKVEIKRTGLDSPTGLDSPTGLDSPTGLD[human IgG1 Fc and a few adjoining residues not shown]
notes: Vk dAb-Fc; dimer; also called N085 Fibrx4; N085 Fibronectin 4

- Kd (human VEGF165 [9]): 2 pM
B7: DMS30001 (C-terminal Fc fusion of K-044-232 dAb, GS(TVAAPSGS)x3 Linker, Fc-dAb) (Fc fusion)
chain: [human IgG1 Fc and a few adjoining residues not shown]GSTVAAPSGSTVAAPSGSTVAAPSGSDIQMTQSPSSLSASVGDRVTITCRASQWIGPELSWYQQKPGKAPKLLIYHGSILQSGVPSRFSGSGSGTDFTLTISSLQPEDFATYYCQQYMYYPETFGQGTKVEIKR
notes: Vk Fc-dAb; dimer

- Kd (human VEGF165 [9]): 3 pM
B8: DMS30002 (C-terminal Fc fusion of K-044-236 dAb, GS(TVAAPSGS)x3 Linker, Fc-dAb) (Fc fusion)
chain: [human IgG1 Fc and a few adjoining residues not shown]GSTVAAPSGSTVAAPSGSTVAAPSGSDIQMTQSPSSLSASVGDRVTITCRASQWIGPELSWYQQKPGKAPKLLIYHGSILQSGVPSRFSGSGSGTDFTLTISSLQPEDFATYYCQQYMYYPKTFGQGTKVEIKR
notes: Vk Fc-dAb; dimer

- Kd (human VEGF165 [10]): 0.0231 nM
- koff (human VEGF165 [10]): 0.000141 s⁻¹
- kon (human VEGF165 [10]): 6.11e+06 M⁻¹ s⁻¹
B9: C085 G4Sx4 (C-terminal Fc fusion of K-044-085 dAb ((Gly4Ser)x4)) (Fc fusion)
chain: [human IgG1 Fc not shown]GGGGSGGGGSGGGGSGGGGSDIQMTQSPSSLSASVGDRVTITCRASQWIGPELKWYQQKPGKAPKLLIYHGSILQSGVPSRFSGSGSGTDFTLTISSLQPEDFATYYCQQYMYYPHTFGQGTKVEIKR
notes: Vk Fc-dAb; dimer
